In the supplement of paper PMC3334620:
Over roughly 33,000 sequences, “E-score (-0.5 to 0.5)” has its median near -0.054; the highest 2% begin near 0.39. Some of the results follow.

Molecular target: Ylr278c (UniProt Q05854)
Assay: PBM E-score (8-mer binding enrichment) (E-score (-0.5 to 0.5)); higher = stronger / more preferred TF binding; most listed sequences are background and not binding sites
Settings: protein concentration: 200 nM; construct: GST-DNA-binding domain
Description: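 Universal 'all 10-mer' protein binding microarrays (Agilent AMADID 015681) probed with GST-tagged S. cerevisiae TFs (full-length or DBD) made by in vitro transcription/translation (PURExpress), about 100-200 nM. Bound TF was detected with fluorescent anti-GST. Each ungapped 8-mer (which stands for itself and its reverse complement) is scored by the PBM enrichment score (E-score), a modified Wilcoxon-Mann-Whitney statistic from -0.5 to +0.5, computed with the Universal PBM Analysis Suite. Scale: above 0.35 generally sequence-specific binding.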

Row | Sequence | PBM E-score
1 | ATACTGAA | -0.249
2 | AACACCTG | -0.151
3 | ATACGAGC | -0.0146
4 | CATACTGG | -0.0228
5 | GTTCTGTA | -0.19
6 | ACTTCAGG | -0.0351
7 | AGAACATA | 0.17
8 | CAACGCCA | -0.167
9 | TTCCCAAA | -0.114
10 | CATGCTGA | -0.106
11 | ATCCGGCC | 0.399
12 | CTTGACAC | -0.193
13 | GCCCTATA | -0.126
14 | TAAAAAGA | -0.0968
15 | ACGTGCGC | -0.0167
16 | ACGACGAC | -0.169
17 | GAACATCA | -0.0903
18 | GCTCGTCC | 0.0498
19 | ATGTGTAA | -0.0901
20 | CAGTGCGC | -0.0568
21 | AGGCTATG | -0.145
22 | CGTGATTA | -0.0095
23 | GAGTTAAC | -0.104
24 | CCAGGCGC | -0.0509
25 | CTTAACGC | -0.17

Row | Sequence | PBM E-score
26 | ACCCCAGG | -0.191
27 | CTGGAACC | -0.175
28 | AACCAGCT | -0.268
29 | AGTCAGAT | -0.137
30 | CGTTGACC | -0.182
31 | GAAGCATC | -0.17
32 | CCAATGGA | -0.0471
33 | CAGCTGGC | 0.158
34 | GCTTATAA | -0.0843
35 | ACCGCAGA | -0.158
36 | TCTCGAGA | -0.061
37 | AGGTCTAT | -0.141
38 | AGATCAAT | -0.117
39 | CTATATGC | -0.0286
40 | CGACGCTA | 0.0184
41 | AGCCGAGG | 0.116
42 | AATTTGAA | 0.144
43 | GATCTAGC | -0.154
44 | CCGATAAG | 0.228
45 | ACATGTTA | -0.0688
46 | CTAGTATC | -0.00044
47 | AACATACT | -0.0198
48 | CATAAGCA | -0.14
49 | TAACACCA | -0.217
50 | AGCCTTAG | -0.289

Row | Sequence | PBM E-score
51 | AGGTGTGC | -0.183
52 | ACATTATG | -0.0505
53 | GATTGAAA | 0.0649
54 | CCCGTGCA | 0.0714
55 | CCTCAGAG | -0.176
56 | ACGACAGT | -0.201
57 | AATACTCA | -0.0606
58 | TACGCGCA | 0.175
59 | AGTCTGGC | -0.217
60 | CGAACATC | 0.137
61 | GTCCCAGA | -0.235
62 | CTCACGAC | -0.273
63 | CCCAAAAG | -0.00836
64 | AAGGCTGG | -0.364
65 | AGTGGAGA | -0.11
66 | ATAGTGGC | -0.179
67 | ATAGGGGG | -0.138
68 | TAACCGGA | 0.431
69 | CACTACAC | -0.121
70 | CGTTTGGA | -0.0681
71 | CTTTGGCC | -0.00842
72 | CGGGCATA | 0.119
73 | AAGCTGCG | -0.00014
74 | AATGAGAC | -0.206
75 | TCAACCAA | -0.17

Row | Sequence | PBM E-score
76 | ACCTTGAT | -0.0349
77 | TGATGTAA | -0.0886
78 | GTGGTTCA | -0.141
79 | GAGTAAAC | 0.0397
80 | ATTACGTA | 0.00229
81 | GTTAGAAC | -0.0392
82 | AGCTCGGG | 0.141
83 | AATCAGTA | -0.157
84 | GCGATGTA | 0.00603
85 | AGTACCAG | -0.119
86 | AGTCTGTG | -0.268
87 | GGACGTGA | -0.103
88 | ACCTCTGC | -0.209
89 | AATGCTTC | 0.0555
90 | CAAACCTA | -0.144
91 | AGCATTCC | 0.0817
92 | CTTTTTTA | -0.128
93 | CAACATAG | -0.203
94 | ACCTACTA | -0.0586
95 | TTACCGAA | 0.172
96 | TGATATCA | -0.294
97 | ATTATGCG | 0.199
98 | ATAGGATC | -0.118
99 | ACTGTGAG | -0.144
100 | CTATCACA | -0.125

Row | Sequence | PBM E-score
101 | GCTTACCA | -0.178
102 | CCAGGGGG | -0.324
103 | CCGGGGTA | 0.408
104 | AATGTGGG | 0.0131
105 | ACTGGCCC | -0.0769
106 | GCGAACAA | 0.0778
107 | GCGTCTCA | -0.184
108 | ACCGCCCA | 0.154
109 | AAGAGACA | -0.0194
110 | AACAGGGC | -0.152
111 | CTCAAATC | -0.153
112 | AACCAAAG | -0.261
113 | CCACGGCC | 0.079
114 | GATCCAGC | 0.0556
115 | ATTCTGGC | -0.138
116 | AAAGAAAC | 0.08
117 | AAAAATCC | 0.272
118 | ATGAGCAC | -0.187
119 | ACGTGAAG | -0.271
120 | CCACGTAC | -0.165
121 | CAGCGAGA | -0.124
122 | AGCTATAA | -0.206
123 | CGGGGAAG | 0.33
124 | CCAAGACC | 0.026
125 | ATCGTTCA | -0.0863

Row | Sequence | PBM E-score
126 | AGATATAA | -0.0869
127 | CTTTTTCA | -0.113
128 | CTAAAGAC | -0.12
129 | ACTGATTG | -0.265
130 | AACCTATT | 0.0111
131 | AGGGAACG | -0.106
132 | CCCTAAGA | -0.221
133 | ATCCACCC | -0.0998
134 | TCAGTGAA | -0.101
135 | ACCTGGCG | -0.0748
136 | CCATGATC | -0.214
137 | GGCCTAAC | 0.0676
138 | CAACTGCC | -0.00091
139 | GCTAGGGA | -0.164
140 | CAAAGTCA | -0.0965
141 | AGATGCAC | -0.0601
142 | CTATTCGA | -0.346
143 | CTTGCCGC | 0.0907
144 | GAAGCTTC | 0.0167
145 | GAATTCAA | 0.084
146 | GGCATCCA | -0.0829
147 | CCGAGGTA | 0.186
148 | GGTTAGCA | -0.0985
149 | AAAAATGC | 0.115
150 | AAGCATTG | -0.221

Row | Sequence | PBM E-score
151 | GAACGGAC | 0.279
152 | AGGAGATC | 0.0493
153 | AGCCTTAA | 0.0015
154 | AAGGGTAC | -0.222
155 | AACAAGTG | -0.215
156 | GTGGAGCA | -0.158
157 | AATCTTCA | -0.00179
158 | CGACCCAC | 0.0789
159 | AGGAAGCC | -0.0235
160 | GCTCCGAA | 0.464
161 | AGTATTCC | 0.165
162 | CAGCACTA | -0.205
163 | AAGTATTG | -0.118
164 | CCCAGTTC | 0.138
165 | GGAGCCGA | 0.201
166 | TGTCCACA | -0.105
167 | TATTTGCA | -0.24
168 | ACACTGAT | -0.339
169 | GTGTTTGA | -0.191
170 | CGATCGAA | 0.153
171 | ATGGCGCA | -0.0472
172 | AATCCGCG | 0.323
